Data taken from patent US20250059278A1 (SICHUAN HUIYU PHARMACEUTICAL, published 2025).
Values belong to the binder of their own block, whether it stands above or below them.

Assays:
[1] = biological target: T1, Human CD3εγ recombinant antigen (acrobiosystems, Cat. No. CDG-H52W5) (human, UniProt P07766 23-126; P09693 23-116); assay: SPR chip (Carterra), antibody captured, antigen in flow
T1 construct: Bought recombinant protein

[2] = biological target: T2, Monkey CD3 on cynomolgus HSC-F cells (cynomolgus monkey, UniProt Q95LI5 22-198; Q95LI7 23-181; Q95LI8 22-171); assay: flow cytometry on HSC-F cells
T2 construct: whole, on cells; also called Monkey CD3-expressing cynomolgus HSC-F cells; cynomolgus monkey CD3-expressing HSC-F cells
T2 sequence (Q95LI5 22-198, chain 1 of 3): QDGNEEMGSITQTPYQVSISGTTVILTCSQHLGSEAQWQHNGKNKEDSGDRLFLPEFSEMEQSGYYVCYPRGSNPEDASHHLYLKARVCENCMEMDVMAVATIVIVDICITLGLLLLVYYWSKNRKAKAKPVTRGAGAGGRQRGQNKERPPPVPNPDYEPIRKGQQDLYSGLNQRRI
T2 sequence (Q95LI7 23-181, chain 2 of 3, further chain): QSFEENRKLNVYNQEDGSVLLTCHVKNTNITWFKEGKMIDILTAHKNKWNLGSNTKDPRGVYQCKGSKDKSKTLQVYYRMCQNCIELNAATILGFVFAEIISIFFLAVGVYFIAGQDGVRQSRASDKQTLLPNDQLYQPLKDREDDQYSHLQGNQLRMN
T2 sequence (Q95LI8 22-171, chain 3 of 3, further chain): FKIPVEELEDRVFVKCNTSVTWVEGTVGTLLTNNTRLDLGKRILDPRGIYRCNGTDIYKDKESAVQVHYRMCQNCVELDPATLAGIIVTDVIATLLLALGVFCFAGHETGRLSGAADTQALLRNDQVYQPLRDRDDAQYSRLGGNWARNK

[3] = biological target: T3, Human CD3 on Jurkat cells (human, UniProt P07766; P09693; P04234); assay: flow cytometry on Jurkat cells
T3 construct: whole, on cells; also called Human CD3-expressing Jurkat cells; Jurkat (naturally expressing human CD3)

Kd [1]: 3.7 nM | koff [1]: 0.002 s⁻¹ | kon [1]: 540000 M⁻¹ s⁻¹
B1: CD3-MSLN bispecific antibody B28 (bispecific antibody, human IgG1, lambda)
heavy: EVQLVESGGGLVQPGGSLRLSCAASGFTFNTYAMNWVRQAPGKGLEWVARIRSKYNNYATYYADSVKDRFTISRDDSKSILYLQMNSLKTEDTAMYYCVRHHNFGNSYVSWFAYWGQGTLVTVSSASTKGPSVFPLAPSSKSTSGGTAALGCLVKDYFPEPVTVSWNSGALTSGVHTFPAVLQSSGLYSLSSVVTVPSSSLGTQTYICNVNHKPSNTKVDKKV[letters of human IgG1 Fc with changes omitted]GGGGSGGGGSEVQLVESGGGLVQAGESLRLSCAVSGNIGSIRHMGWHRQDPGKERELVATITTVGTTYYANFVKGRFTISRDNAKNTVYLQMNSLKPEDTGVYYCRATAHPTDYWGQGTQVTVSS
light: [letters of about 100 residues omitted][letters of about 100 residues omitted]
notes: [VH28]-[CH]-[L]-[3C6 VHH] with [VL-1]-[CL]

EC50 [2]: 0.254 nM | EC50 [3]: 0.477 nM | Kd [1]: 1.3 nM | koff [1]: 0.0018 s⁻¹ | kon [1]: 1.4e+06 M⁻¹ s⁻¹
B2: CD3-MSLN bispecific antibody B27 (bispecific antibody, human IgG1, lambda)
heavy: EVQLVESGGGLVQPGGSLRLSCAASGFTFNTYAMNWVRQAPGKGLEWVARIRSKYNNYATYYADSVKGRFTISRDDSKSILYLQMNSLKTEDTAMYYCVRHANFGNSYVSWFASWGQGTLVTVSSASTKGPSVFPLAPSSKSTSGGTAALGCLVKDYFPEPVTVSWNSGALTSGVHTFPAVLQSSGLYSLSSVVTVPSSSLGTQTYICNVNHKPSNTKVDKKV[letters of human IgG1 Fc with changes omitted]GGGGSGGGGSEVQLVESGGGLVQAGESLRLSCAVSGNIGSIRHMGWHRQDPGKERELVATITTVGTTYYANFVKGRFTISRDNAKNTVYLQMNSLKPEDTGVYYCRATAHPTDYWGQGTQVTVSS
light: [letters of about 100 residues omitted][letters of about 100 residues omitted]
notes: [VH27]-[CH]-[L]-[3C6 VHH] with [VL-1]-[CL]

EC50 [2]: 0.0756 nM | EC50 [3]: 0.0566 nM | Kd [1]: 3.7 nM | koff [1]: 0.0038 s⁻¹ | kon [1]: 1e+06 M⁻¹ s⁻¹
B3: CD3-MSLN bispecific antibody B32 (bispecific antibody, human IgG1, lambda)
heavy: EVQLVESGGGLVQPGGSLRLSCAASGFTFNTYAMNWVRQAPGKGLEWVARIRSKYNNYATYYADSVKGRFTISRDDSKSSLYLQMNSLKTEDTAVYYCVRHSNFGNSRVSWFAYWGQGTLVTVSSASTKGPSVFPLAPSSKSTSGGTAALGCLVKDYFPEPVTVSWNSGALTSGVHTFPAVLQSSGLYSLSSVVTVPSSSLGTQTYICNVNHKPSNTKVDKKV[letters of human IgG1 Fc with changes omitted]GGGGSGGGGSEVQLVESGGGLVQAGESLRLSCAVSGNIGSIRHMGWHRQDPGKERELVATITTVGTTYYANFVKGRFTISRDNAKNTVYLQMNSLKPEDTGVYYCRATAHPTDYWGQGTQVTVSS
light: [letters of about 100 residues omitted][letters of about 100 residues omitted]
notes: [VH32]-[CH]-[L]-[3C6 VHH] with [VL-1]-[CL]

EC50 [2]: 0.324 nM | EC50 [3]: 2.82 nM | Kd [1]: 7.4 nM | koff [1]: 0.0035 s⁻¹ | kon [1]: 470000 M⁻¹ s⁻¹
B4: CD3-MSLN bispecific antibody B34 (bispecific antibody, human IgG1, lambda)
heavy: EVQLVESGGGLVQPGGSLRLSCAASGFTFNTYAMNWVRQAPGKGLEWVARIRSKYNNYATYYADSVKGRFTISRDDSKSSLYLQMNNLKTEDTAVYYCVRHGNFKQSYVSWFAYWGQGTLVTVSSASTKGPSVFPLAPSSKSTSGGTAALGCLVKDYFPEPVTVSWNSGALTSGVHTFPAVLQSSGLYSLSSVVTVPSSSLGTQTYICNVNHKPSNTKVDKKV[letters of human IgG1 Fc with changes omitted]GGGGSGGGGSEVQLVESGGGLVQAGESLRLSCAVSGNIGSIRHMGWHRQDPGKERELVATITTVGTTYYANFVKGRFTISRDNAKNTVYLQMNSLKPEDTGVYYCRATAHPTDYWGQGTQVTVSS
light: [letters of about 100 residues omitted][letters of about 100 residues omitted]
notes: [VH34]-[CH]-[L]-[3C6 VHH] with [VL-1]-[CL]

EC50 [2]: 0.163 nM | EC50 [3]: 0.193 nM | Kd [1]: 1.4 nM | koff [1]: 0.0026 s⁻¹ | kon [1]: 1.9e+06 M⁻¹ s⁻¹
B5: CD3-MSLN bispecific antibody B23 (bispecific antibody, human IgG1, lambda)
heavy: EVQLVESGGGLVQPGGSLRLSCAASGFTFNTYAMNWVRQAPGKGLEWVARIRSKYNNYATYYADSVKGRFTISRDDSKSILYLQMNSLKTEDTAMYYCVRHSNFLNSYVSWFAYWGQGTLVTVSSASTKGPSVFPLAPSSKSTSGGTAALGCLVKDYFPEPVTVSWNSGALTSGVHTFPAVLQSSGLYSLSSVVTVPSSSLGTQTYICNVNHKPSNTKVDKKV[letters of human IgG1 Fc with changes omitted]GGGGSGGGGSEVQLVESGGGLVQAGESLRLSCAVSGNIGSIRHMGWHRQDPGKERELVATITTVGTTYYANFVKGRFTISRDNAKNTVYLQMNSLKPEDTGVYYCRATAHPTDYWGQGTQVTVSS
light: [letters of about 100 residues omitted][letters of about 100 residues omitted]
notes: [VH23]-[CH]-[L]-[3C6 VHH] with [VL-1]-[CL]

EC50 [2]: 0.239 nM | EC50 [3]: 1.17 nM | Kd [1]: 2.1 nM | koff [1]: 0.0014 s⁻¹ | kon [1]: 660000 M⁻¹ s⁻¹
B6: CD3-MSLN bispecific antibody B24 (bispecific antibody, human IgG1, lambda)
heavy: EVQLVESGGGLVQPGGSLRLSCAASGFTFNTYAMNWVRQAPGKGLEWVARIRSKYNNYATYYADSVKGRFTISRDDSKSILYLQMNSLKTEDTAVYYCVRHSNFGRSYVSWFAYWGQGTLVTVSSASTKGPSVFPLAPSSKSTSGGTAALGCLVKDYFPEPVTVSWNSGALTSGVHTFPAVLQSSGLYSLSSVVTVPSSSLGTQTYICNVNHKPSNTKVDKKV[letters of human IgG1 Fc with changes omitted]GGGGSGGGGSEVQLVESGGGLVQAGESLRLSCAVSGNIGSIRHMGWHRQDPGKERELVATITTVGTTYYANFVKGRFTISRDNAKNTVYLQMNSLKPEDTGVYYCRATAHPTDYWGQGTQVTVSS
light: [letters of about 100 residues omitted][letters of about 100 residues omitted]
notes: [VH24]-[CH]-[L]-[3C6 VHH] with [VL-1]-[CL]

EC50 [2]: 0.179 nM | EC50 [3]: 0.242 nM | Kd [1]: 1.2 nM | koff [1]: 0.0021 s⁻¹ | kon [1]: 1.7e+06 M⁻¹ s⁻¹
B7: CD3-MSLN bispecific antibody B12 (bispecific antibody, human IgG1, lambda)
heavy: EVQLVESGGGLVQPGGSLRLSCAASGFTFNTYAMNWVRQAPGKGLEWVARIRSKYNNYATYYADSVKGRFTISRDDSKSSLYLQMNNLKTEDTAMYYCVRHSNFPNSYVSWFAYWGQGTLVTVSSASTKGPSVFPLAPSSKSTSGGTAALGCLVKDYFPEPVTVSWNSGALTSGVHTFPAVLQSSGLYSLSSVVTVPSSSLGTQTYICNVNHKPSNTKVDKKV[letters of human IgG1 Fc with changes omitted]GGGGSGGGGSEVQLVESGGGLVQAGESLRLSCAVSGNIGSIRHMGWHRQDPGKERELVATITTVGTTYYANFVKGRFTISRDNAKNTVYLQMNSLKPEDTGVYYCRATAHPTDYWGQGTQVTVSS
light: [letters of about 100 residues omitted][letters of about 100 residues omitted]
notes: [VH12]-[CH]-[L]-[3C6 VHH] with [VL-1]-[CL]
